# According to PMC12136788:
# Some of the results follow.
# B1: chr16:94664741:94664742:+_ENSMUSG00000040785_ENSMUST00000117648|mus_hu|mus_mus_mus_hu_False|8_78 (ssRNA)
# RNA: GGGAGUUCUACAGUCCGACGAUCUGGUACUGAUCUUGGUAGCUGAUAUUCAGGAGAAAUGUUGGCCAAGGGUGUAUAUAUGCUGGUGUACUGGGGCAAACCUGGUAACACGUUUAUGUAUGCUGGCCGCUGGGUGAUGAUAUCCAACAGAGGAUUGAGCAUCA
# B2: chr15:3987131:3987132:+_ENSMUSG00000022186_ENSMUST00000110690|mus_mus|FALSE|FALSE (ssRNA)
# RNA: GGGAGUUCUACAGUCCGACGAUCCCCUGCAUUGUUGCUGACUGCAGUUAGAUCUUUUACUCCAGUCUUCAGUAAAGCUCCUAUAAGAUUCUCUGGAAUACCACACAGCCCAAAACCACCAACCAGCAAGGUUGCACCAUUAGGCAACAGAGGAUUGAGCAUCA
# B3: 74801827_74806942_828_CDS_ENSG00000113163_ENST00000380494|human|control|control (ssRNA)
# RNA: GGGAGUUCUACAGUCCGACGAUCACAGAUGGAUCCUCUGCAGCCAUACUCUGUUUCAUCUUCAGAUUUGUAGUAACUCAGAGCAUUAUUUUUCAAAACUACCCAACGAUCCUGCCACCCAUGAAUGUAGUUUGUCCACUUACUCAACAGAGGAUUGAGCAUCA
# B4: chr19:16212804:16212805:+_ENSG00000167460_ENST00000300933|hu_mus|hu_hu_hu_mus_False|48_68 (ssRNA)
# RNA: GGGAGUUCUACAGUCCGACGAUCAACAAUUCUGGAGUGAAGGAAAGAUGUAACAUGGAACAGCAUUCCAUCUAUUACAGAAGGCACGUGGGUAAUUAUGAUCACCCCAGCAUUCUCGCUUGGAAUGCUUAAAGACAAUCUGUUCAACAGAGGAUUGAGCAUCA
# B5: chr1:168318718:168318719:+_ENSMUSG00000026563_ENSMUST00000027846|mus_mus|FALSE|FALSE (ssRNA)
# RNA: GGGAGUUCUACAGUCCGACGAUCCUGGGGCUCCUUUGCCACGAACUGCUGAGCUCCAGAGAGGGGGUUCUGAGGCUGGAACCUAUGAUCAAAUUUUUGACGAACAGAAGAAAGCUUUUUCUUGCCCUUGGGUUUUCCAGGCUUCAACAGAGGAUUGAGCAUCA
# B6: chrX:140365796:140365797:-_ENSMUSG00000031285_ENSMUST00000033642|mus_mus|mus_mus_mus_hu_False|98_98 (ssRNA)
# RNA: GGGAGUUCUACAGUCCGACGAUCCUUCUCAUUACUCAAUGCCUGCAAGGUUCUGGUUCGGUAGAAGCUACAGUGGGCGCUGUGAGUGGGGCUAGGCAACCCAUUCAUCCGGGAGCCUCGCAUGUUCCUGGAUGUCUUAUCUCUCAACAGAGGAUUGAGCAUCA
# B7: chr13:24895032:24895033:+_ENSMUSG00000019132_ENSMUST00000019276|mus_hu|FALSE|FALSE (ssRNA)
# RNA: GGGAGUUCUACAGUCCGACGAUCAUAUUAGCAGACUGUCAUAUUACAGGGUCAAGAAACAAAAGCUGCUGUCCAGUCAUGUUUGGACAAUAACGUUUGGGGUCAGACGGGAAAAAGGGAGGAAAGAAAGGAAAGAAAGAGGAGCAACAGAGGAUUGAGCAUCA
# B8: chr14:76904430:76904431:+_ENSMUSG00000022010_ENSMUST00000022587|mus_mus|mus_mus_mus_hu_True|28_48 (ssRNA)
# RNA: GGGAGUUCUACAGUCCGACGAUCUGCAGCCAAAAACACCCUCGUGGAAAAAAAGAGGGAACACCAGCAGCCUUGUAUAAGCUAGAUAAAACCGCCUGGCUUUCCGCAGCUCAGGGCGAAACAGAAAACGGCAGCCCUAAUUUACAACAGAGGAUUGAGCAUCA
# B9: chr2:18084439:18084440:+_ENSMUSG00000026743_ENSMUST00000114669|mus_mus|motif|central (ssRNA)
# RNA: GGGAGUUCUACAGUCCGACGAUCUGAGCAGCGUAGGAGAUUUCUGAAGACUAGAGCUUGUUACACUUCCUGCAGCUGAUGCGGCGGACGAUGUUGGUGAAGCAGAAGAAACUGAGAGGUGAGAAACAUUUUCUUGAUUUUUGUCAACAGAGGAUUGAGCAUCA
# B10: chr10:127876205:127876206:+_ENSMUSG00000025373_ENSMUST00000096386|mus_hu|FALSE|FALSE (ssRNA)
# RNA: GGGAGUUCUACAGUCCGACGAUCUCUAUGGAACAAUUAUGGCCUGUGCCACAAGAGGCAGUGCCAACCAUAUUUUAGCAAAAGCUAGGAGUAGCUUCUUGCUAAACACAUCAACCCCCAACAGAUUAACCCCUACCCUAAACCCAACAGAGGAUUGAGCAUCA
# B11: chr5:145543945:145543946:-_ENSG00000133706_ENST00000545646|hu_hu|hu_hu_hu_mus_True|8_68 (ssRNA)
# RNA: GGGAGUUCUACAGUCCGACGAUCCUGAACGGCCAGUGGUGGGAAAUAAUCAAGCCAGUGCUCUGCUUCAGAAAAUUUCACUAUGUCGUCAUCAGAGAGCCCAAGGGAUUUCAUAAUGUCCCACUGGUAUUUAGAAGAUCCUGCCAACAGAGGAUUGAGCAUCA
# B12: chr13:113737515:113737516:+_ENSMUSG00000042426_ENSMUST00000038574|mus_mus|motif|central (ssRNA)
# RNA: GGGAGUUCUACAGUCCGACGAUCAGAAUUCCUUCCUCCAGGGCCACUCUCACAGCCCAGCUCCUCGCACACCCUGGUGGCGGAGCUCACCGCCGAGAUUCUUCGGGGCUGGGUGCAGACUAUGUUACACUUCCUGGCUCCACACAACAGAGGAUUGAGCAUCA
# B13: chr3:112251601:112251602:-_ENSG00000144848_ENST00000283290|hu_mus|motif|central (ssRNA)
# RNA: GGGAGUUCUACAGUCCGACGAUCAGGAUAGACUCUAUAGCCUCUCCACUACAUUGUGAAGUGUCUUGUGUAGUCAUAUUCGGUUGUUGGAAUGACAGCUUGAACAAAUUUCAAAAAAAUUAAAAGAUACAUAUGAACACCAAGCAACAGAGGAUUGAGCAUCA
# B14: chrX:71549400:71549401:+_ENSMUSG00000019087_ENSMUST00000019231|mus_hu|mus_mus_mus_hu_False|88_108 (ssRNA)
# RNA: GGGAGUUCUACAGUCCGACGAUCGCAAGGAAGAGGAGGAAGCUCUUCAUCCACUGUCGCUGCAGGGUGGGAAAGCAACAACACGGACACCGUCCCACCCUCAACCCCCCCACUGGCACAGGGUCACACAAUCUGGGUCAAAGACAACAGAGGAUUGAGCAUCA
# Target: T1, UNK ZnF1-3 (human, UniProt Q9C0B0 31-174)
# T1 sequence: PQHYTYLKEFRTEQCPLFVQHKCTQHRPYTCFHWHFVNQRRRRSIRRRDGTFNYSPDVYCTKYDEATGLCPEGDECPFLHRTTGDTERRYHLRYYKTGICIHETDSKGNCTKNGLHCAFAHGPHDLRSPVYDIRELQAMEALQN
# Assay: nsRBNS (natural sequence RNA bind-n-seq); RBNS binding buffer (assumed for nsRBNS): 25 mM Tris pH 7.5, 150 mM KCl, 3 mM MgCl2, 0.01% Triton X-100, 500 ug/ml BSA, 20 U/ml SUPERase-In, 4 C; UNK is unkempt and MSI1 is Musashi-1; names of the RNAs are library labels; protein concentration not given here; high values mean tight binding
row,Binder,binding signal
1,B1,0.854 enrichment R
2,B2,0.988 enrichment R
3,B3,1.32 enrichment R
4,B4,0.721 enrichment R
5,B5,1.34 enrichment R
6,B6,0.768 enrichment R
7,B7,1.77 enrichment R
8,B8,1.62 enrichment R
9,B9,1.31 enrichment R
10,B10,1.1 enrichment R
11,B11,1.29 enrichment R
12,B12,0.721 enrichment R
13,B13,1.77 enrichment R
14,B14,1.37 enrichment R
